Results taken from patent US20250382386A1 (KINTOR PHARMACEUTICAL GUANGDONG, published 2025).

Tests used:
[1] = biological target: T1, human ALK-1 on cells (CHO-K1-hALK-1 cells; HUVEC; A172) (human, UniProt P37023 22-503); test: cell-based or functional assay
VEGF165 = biological target: T2, VEGF165 (UniProt P15692-4 27-191); test: BLI (Octet RED96e), antibody on AHC sensor, 1:1 model
T2 construct: Bought; also called VEGF165 protein; VEGF-A antigen
T2 sequence (looked up): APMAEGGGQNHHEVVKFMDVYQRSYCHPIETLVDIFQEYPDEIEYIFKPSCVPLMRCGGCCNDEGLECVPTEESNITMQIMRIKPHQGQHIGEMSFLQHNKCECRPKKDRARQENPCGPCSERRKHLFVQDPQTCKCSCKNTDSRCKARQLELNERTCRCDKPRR

[2] = biological target: T3, Human ALK-1/ACVRL1 Protein, His Tag (Acro AL1-H5227) (human, UniProt P37023 partial chain); test: as above
T3 construct: range 22-118; Bought protein; also called ALK-1/His; ALK-1-his

[3] = biological target: T3, Human ALK-1/ACVRL1 Protein, His Tag …; test: BLI (Octet RED96e), antibody on ProteinA sensor, 1:1 model
[4] = biological target: T1, human ALK-1 on cells (CHO-K1-hALK-1 …); test: flow cytometry on CHO-K1-hALK-1 cells, MFI; VEGF 165-biotin and APC-anti-human IgG mAb added after the antibody

B1: BEV813 bsAb (anti-ALK-1-anti-VEGF bispecific antibody) (bispecific antibody, human IgG1, kappa)
heavy: EVQLVESGGGLVQPGGSLRLSCAASGYTFTNYGMNWVRQAPGKGLEWVGWINTYTGEPTYAADFKRRFTFSLDTSKSTAYLQMNSLRAEDTAVYYCAKYPHYYGSSHWYFDVWGQGTLVTVSSASTKGPSVFPLAPSSKSTSGGTAALGCLVKDYFPEPVTVSWNSGALTSGVHTFPAVLQSSGLYSLSSVVTVPSSSLGTQTYICNVNHKPSNTKVDKKV[here human IgG1 Fc with changes without letters]GGGGSGGGGSGGGGSGGGGSQVQLQESGPGLVKPSQTLSLTCTVSGGSISSGEYYWNWIRQHPGKCLEWIGYIYYSGSTYYNPSLKSRVTISVDTSKNQFSLKLSSVTAADTAVYYCARESVAGFDYWGQGTLVTVSSGGGGSGGGGSGGGGSGGGGSEIVLTQSPGTLSLSPGERATLSCRASQSVSSSYLAWYQQKPGQAPRLLIYGTSSRATGIPDRFSGSGSGTDFTLTISRLEPEDFAVYYCQAYGSWPITFGCGTRLEIK
light: DIQMTQSPSSLSASVGDRVTITCSASQDISNYLNWYQQKPGKAPKVLIYFTSSLHSGVPSRFSGSGSGTDFTLTISSLQPEDFATYYCQQYSTVPWTFGQGTKVEIKRTVAAPSVFIFPPSDEQLKSGTASVVCLLNNFYPREAKVQWKVDNALQSGNSQESVTEQDSKDSTYSLSSTLTLSKADYEKHKVYACEVTHQGLSSPVTKSFNRGEC
notes: also called ALK1-VEGF bispecific antibody BEV813
IC50; blocking of BMP9-induced Smad1 phosphorylation, pSmad1 ELISA assay in A172 cell line (right panel), OD 450 [1]: 6.44 nM
IC50; blocking of BMP9-induced Smad1 phosphorylation, pSmad1 ELISA assay in HUVEC (left panel), OD 450 [1]: 93.1 nM
Kd (VEGF165): 0.724 nM
koff (VEGF165): 0.000151 s⁻¹
kon (VEGF165): 209000 M⁻¹ s⁻¹
Kd [2]: 0.689 nM
koff [2]: 0.000335 s⁻¹
kon [2]: 486000 M⁻¹ s⁻¹
Kd [3]: 4.89 nM
koff [3]: 0.00219 s⁻¹
kon [3]: 447000 M⁻¹ s⁻¹
EC50 [4]: 1.16 nM
